To fix the notation:
B1: LINE1-full (parent)
chain: UACGUAGGUGGUUUUCCCCUGAUAGUGCUAAGGGGGCCUGGAAGUUUGGACUGGGCAGAGCUCAACACAGCGUGGCAAAGUGGCUGUGGCUAGACUGCCUCUCUGGAUUCCUCGUCACUCAGCAGGGCAUCUCUGAGAGAAAUGCC

Read counts are not given, so values of variants with three or more changes are uncertain.

The variants in the data set derive from B1. In words: self-cleavage, relative activity (ratio to wild type); higher = more cleavage; in vitro, sequencing; the parent is a self-cleaving ribozyme.
As to UGCGUAGGUGGUUAUCCCCUGAUAGUGCUAAGGGGGCCUGGAAGUUUGGACUGGGCAGAGCUCAACACGGCGUGGCAAAGUGGCUGUGGCUAGACUGCCUCUCUGGAUUCCUCGUCACUCAGCAGGGCUUCUCUGAGAGAAAUGCC [A2G U14A A69G A129U], the self-cleavage is 0.4. In the case of UGCGUAGGUGGUUUACCCCUGAUAGUGCUAAGGGGACCUGGAAGUUUGGACUGGGCAGAGCUCAACACAGCGUGGCAAAGUGGCUGUGGCUAGACUGCCUCUCUGGAUUCCUCGUCACUCAGCAGGACAUCUCUGAGAGAAAUGCC [A2G U15A G36A G127A], the self-cleavage was determined as 0.75.

Take UGCGUAGGUGGUUCUCCCCUGAUAGUGCUAAGGGGGCCUGGAAGUUUGGACUGGGCAGAGCUCAACACAGCGUGGCAAAGUGGCUGUGGCUAGACUGCCUCUCUGGAUUCCUCGACACUCAGCAGGGCAGCUCUGAGAGAAAUGCC [A2G U14C U115A U130G]: the self-cleavage came out at 1.48.

With UGCGUAGGUGGUCUUCCCCUGAUAGUGCUAAGGGGGCCUGGAAGUUUGGACUGGGCAGAGCUCGACACAGCGUGGCAAAGUGGCUGUGGCUAGACUGCCUCUCUGGAUUCCUCGUCACUCAGCAGGGCAUCUCUGAGAGAAAUGCC [A2G U13C A64G], the self-cleavage was determined as 0.8. Take UGCGUAGGUGGUCUUCCCCUGAUAGUGCUAAGGGGGCCUGGAAGUUUGGACUGGGCAGAGCUCAACACAGCGUGGCAAAGUGGCUGUGGCUAGACUGCCUCUCUGGAUUCCUCGUCACUCAGCAGGGCAUCUCUGAGAGAAGUACC [A2G U13C A142G G144A]: the self-cleavage was 0.94.

Turning to UGCGUAGGUGGUUUACCCCUGAUAGUGCUAAGGGGGCCUGGAAGUUUGGACUGAGCAGAGCUCCUCACAGCGUGGCAAAGUGGCUGUGGCUAGACUGCCUCUCUGGAUUCCUCGUCACCCAGCAGGGCAUCUCUGAGAGAAAUGCC [A2G U15A G54A A64C A65U U119C], the self-cleavage stood at 0.16.

As for UGCGUAGGUGGUUCUCCCCUGAUAGUGCUAAGGGGGCCUGGAGGAUUGGACUGGGCAGAGCUCAACACAGCGUGGCAAAGUGGCUGUGGCUAGACUGCCUCUCUGGAUUCCUCGUCACUCAGCAGGGCAUCGCUGAGAGAAAUGCC [A2G U14C A43G U45A U132G], the self-cleavage was found to be 2.4. On to UGCGUAGGUGGUUUUCCCCUGAUAGCGCUAAGGGGGCCUGGAAGUUUGGACUGGGCAGAGCUCAACACAGCGUGGCAAAGUGGCUGUGGCUAGACUGCCUCUCUGGAUUCCUCGUUACUCCGCAGGGCAUCUCUGAGAGAAAUGCC [A2G U26C C116U A121C], for which the self-cleavage stood at 0. Under UGCGUAGGUGGUUUUCCCCCGAUAGUGCUAAGGGGGCCUGGAAGUUCGGACUGGGCAGAGCUCAACACAGCGUGGCAAAGUGGCUGUGGCUAGACUGCCUCUCUGGAUUCCUCGUCACACAGCAGGGCAUCUCUGAGAGAAAAGCC [A2G U20C U47C U119A U143A] stands 0.78; under UGCGUAGGUGGCUUUCCCCUGAUAGUGCUAAGGGGGCCCGGAAGUUUGGACUGGGCAGAGCUCAACACAGCGUGGCAAAGUGGCUGUGGCUAGACUGCCUCUCUGGAUUCCUCGUCACUCAGCAGGGCAUCUCUGAGAGAAAUGCC [A2G U12C U39C], 0.41; under UGCGUAGGUGGUAUCCCCCUGAUAGCGCUAAGGGGGCCUGGAAGUUUGGACUGGGCAGAGCUCAGCACAGCGUGGCAAAGUGGCUGUGGCUAGACUGCCUCUCUGGGUACCUCGUCACUCAGCAGGGCAUCUCUGAGAGAAAUGCC [A2G U13A U15C U26C A65G A107G U109A], 0. Next, UGCGUAGGUGGUUUUCCCCCGAUAGUGCUAAGGGGGCCUGGAAGUUUGGACUGGGCAGAGCUCAACACAGCGCGGCAAAGUGGCUGUGGCUAGACUGCCUCUCUGGAUUCCUCGUCACUCAGCAGGGCAUCUCAGAGAGAAAUGCC [A2G U20C U73C U134A]: 0.68; UGCGUAGGUGGUCUUCCCCUGAUAGUGCUAAGGGGGCCUGGAAGUUUGGACUGGGCAGAGCUCAACACAGCGUGGCAAAGUGACUGUGGCUAGACUGCCUCUCUGGAUUCCUCGACACUCAGCAGGGCAUCUCUGAGAGAAAUGCC [A2G U13C G83A U115A]: 0.51; UGCGUAGGUGGUCUUCCCCUGAUAGUGCUAAGGGGGCCUGGAAGUUUGGACUGGGCAGAGCUCAACACAGCGUGGCAAAGUGGCUGUGGCAAGACUGCCUCUCUGGAUUCCUCGUCACUCAGCAGGGCAUCUCUGAGAGAAAUGCC [A2G U13C U91A]: 0.42. In the case of UGCGUAGGUGGUUUCCCCCUGAUAGUGCUAAGGGGGCCCGGAAGUUUGGACUGGGCAGAGCUCAACACAGCGUGGCAAAGUGGCUGUGGCUAGACUGCCUCUCUGGAUUCCUCGUCACUCAGCAGGGCAUCUCUGAGAGAAAUGCC [A2G U15C U39C], the self-cleavage was 1.07. As for UGCGUAGGUGGUUCUCCCCUGAUAGUGCUAAGGGGGCCUGGAAGAUUGGGCUGGGCAGAGCUCAACACAGCGUGGCAAAGUGGCUGCGGCUAGACUGCCUCUCUGGAUUCCUCGUCACUCAGCAGGGCAUCUCUGAGAGAAAUGCC [A2G U14C U45A A50G U87C], the self-cleavage stood at 1.31.

For UGCGUAGGUGGUCUUCCCCUGAAAGUGCUAAGGGGGCCUGGAAGUUUGGACUGGGCAGAGCUCAACACAGUGUGGCAAAGUGGCUGUGGCUAGACUGCCUCCCUGGAUUCCUCGUCACUCAGCAGGGCAUCUCUGAGAGAAAUGCC [A2G U13C U23A C71U U102C], the self-cleavage amounted to 0.31. Under UGCGUAGGUGGUCUUCCCCUGAUAGUGCUAAGGGGGCCUGGAAGUUUGGACUGGGCAGAGCUCAACACAGCGUGGCAAAGUGGCUGUGGCUAGACUGCCUCUCUGGAUUCCUCGUCACUCAGCAGGGCAUCUCUGAGGGAAAUGCC [A2G U13C A138G] stands 0.8.

Regarding UGCGUAGGUGGUUGUCCCCUGAUAGUGCUAAGGGGGCCUGGAAGUUUGGACUGGGCAGAGCUCAACACAGCGUGGCAAAGUGGCUGUGGCUAGACUGCCUCUCUGGAUUCCUCGUCACUCAGCAGGGCAUCUCUGAGAGAAACGCC [A2G U14G U143C], the self-cleavage was 0.82. For UGCGUAGGUGGUCUUCCCCUGAUAGUGCUAAGAGGGCCUGGAAGUUUGGACUGGGCAGAGCUCAACACAGCGUGGCAAAGUGGCUGUGGCUAGACUGCCUCUCUGGAUUCCUCGUCACUCAGCAGGGCAUCUCUGAGAGAAAUGCC [A2G U13C G33A], the self-cleavage came to 0. Under UGCGUAGGUGGUCUUCCCCUGAUAGUGCUAAGGGGGCCUGGAAGUUUGGACUGGGCAGAGCUCAACACAGCGUGGCAAAGUGGCUGUGGCUAGACUGCCUCUCUGGAUUCCUCGUCACUCAGCGGGGCAUCUCUGAGAGAAAUGCC [A2G U13C A124G] stands 1.15. Regarding UGCGUAGGUGGUCUUCCCCUGAUAGUGCUAAGGGGGCCUGGAAGUUAGGACUGGGCAGAGCUCAACACAGCGUGGCAAAGUGGCUGUGGCUAGACUGCCUCUCUGGAUUCCUCGUCACUCAGCAGGGCAUCUCUGAGAGAAAUGCC [A2G U13C U47A], the self-cleavage was 1.53. Next, UGCGUAGGUGGUUUUCCCCCGAUAGUGCUAAGGGGGCCUGGAAGUUUGGACUGGGCAGAGCUCAACACAGCGUGGCAAAGUGGCUGUGGCUAGACUGCCUCUCUGGAUUCCUCGUCACUCAGCAGGGCACCUCUGAGAGAAAUACC [A2G U20C U130C G144A]: 1.46. For UGCGUAGGUGGUUUACCCCUGAUAGUGCUAAGGGGGCCCGGAAGUUUGGACUGGGCAGAGCUCAACACAGCGUGGCAAAGUGGCUGUGGCUAGACUGCCUCUCUGGAUUCCUCGUCACCCAGCAGGGCAUCUCUGAGAGGAAUGCC [A2G U15A U39C U119C A140G], the self-cleavage was 0.84. Under UGCGUAGGUGGUCUCCCCCUGAUAGUGCUAAGGGGGCCUGGAAGUUCGGACUGGGCGGAGCUCAACACAGCGUGGCAAAGUGGCUGUGGCUAGACUGCCUCUCUGGAUUCCUCGUCACUCAGCAGGGCAUCUCUGAGAGAAAUGCC [A2G U13C U15C U47C A57G] stands 0.85; under UGCGUAGGUGGUUUUCCCCUGAUAGUGCUAAGGGGGCCAGGAAGUUUGGACUGGGCUGAGCUCAACACAGCGCGGCAAAGUGGCUGUGGCUAGACUGCCUCUCUGGAUUCCUCGUCACUCAGCAGGGCAUCUCUGAGAGAAAUGCC [A2G U39A A57U U73C], 0.25; under UGCGUAGGUGGUAUUCCCCUGAUAGUGCUAAGGGGGCCUGGAAGUUCGGACUGGGCAGAGCUCUACACAGCGUGGCAAAGUGGCUGUGGCUAGACUGCCUCUCUGGAUUCCUCGUCACUCAGCAGGGCAUCUCUGAGAGAAAUGCC [A2G U13A U47C A64U], 0.71. As for UGCGUAGGUGGUCUUCCCCUGAUAGUGCUAAGGGGGCCUGGAAGUUCGGACUGGGCAGAGCUCAACACAGGGUGGCAAAGUGGCUGUGGCUAGACUGCCUCUCAGGAUUCCUCGUCACUCAGCAGGGCAUCUCUGAGAGAAAUGCC [A2G U13C U47C C71G U104A], the self-cleavage was determined as 0.64. Take UGCGUAGGUGGUUUUCCCCUGAUAGCGCUAAGGGGGCCUGGAAGUUUGGACUGAGCAGAGCUCAACACAGCGUGGCAAAGUGGCUGUGGCUAGACUGCCUCUCUGGAUUCCUCGUCACUCAGCAGGGCAUCUCUGGGAGAAAUGCC [A2G U26C G54A A136G]: the self-cleavage amounted to 1.29. As for UGCGUAGGUGGUUUUCCCCGGAUAGUGCUAAGGGGGCCUGGAAGUUUUGACUGGGCAGAGCUCAACACAGCGCGGCAAAGUGGCUGUGGCUAGACUGCCACUCUGGAUUCCUCGUCACUCAGCAGGGCAUCUCUGAGAGAAAUGCC [A2G U20G G48U U73C U100A], the self-cleavage is 1.05.

For the variant UGCGUAGGUGGUUCUCCCCUGAUAGUGCUAAGGGGGCCUGGAAGUUUGGACUGAGCAGAGCUCAACACUGCGAAGCAAAGUGGCUGUGGCUAGACUGCCUCUCUGGAUUCCUCGUCACUCAGCAGGGCAUCUCUGAGAGAAAUGCC [A2G U14C G54A A69U U73A G74A], the self-cleavage is 0. As to UGCGUAGGUGGUUUCCCCCUGAUAGUGCUAAGGGGGCCUGGAAGUUUGGACUGGGCAGAGCUCAACACAGCGUGGCAAAGUGGCUGUGGCUAGACUGCCUCUCUGGAUUCCUCGUCAUUCAGCAGGGCAUCUCUGAGAGAAAUGCC [A2G U15C C118U], the self-cleavage came to 0.86. Consider UGCGUAGGUGGGUUUCCCCUGAUAGUGCUAAGGGGGCCUGGAAGUUUGGACAGGGCAGAGCUCAACACAGCGUGGCAAAGUGGCUGUGGUUAGACUGCCUCUCUGGAUUCCUCGUCACUCAGCAGGGCAUCUCUGAGAGAAAUGCC [A2G U12G U52A C90U], for which the self-cleavage was 0.11. With UGCGUAGGUGGUUUUCCCCUGAUAGCGCUAAGGGGGCCUGGAAGUUUGGACUGGGCAGAGCUCAACACAGCGUGUCAAAGUGGCUGUUGCUAGACUGCCUCUCUGGAAUCCUCGUCACUCAGCAGGGCAUCUCUGAGAGAAAUGCC [A2G U26C G75U G88U U108A], the self-cleavage was 0.13. For the variant UGCGUAGGUGGUUUCCCCCUGAUAGUGCUAAGGGGGCCUGGAAGUUUGGACUGGGCAGAGCUCAACACAGCGUGGCAAAGUGGCUGUGGCUAGACUGCCACUCUGGAUUCCUCGUCACUCAGCAGGGCAUCUCUGAGAGAAAUGCC [A2G U15C U100A], the self-cleavage worked out at 0.29. For UGCGUAGGUGGUCUUCCCCUGAUAGUGCUAAGGGGGCCUGGAAGUUUGGACUGGGCAGAGCCCAACACAGCGUGGCAAAGUGGCUGUGGCUAGACUGCCUCUCUGGAUUCCUCGUCACUCAGCAGGGCAUCUCUGAGAGAAGUGCC [A2G U13C U62C A142G], the self-cleavage worked out at 0. As to UGCGUAGGUGGUCUUCCCCUGAUAGUGCUAAGGGGGCCUGGAAGUUUGGACUGGGCAGAGCCCAACACAGCGUGGCAAAGUGGCUGUGGCUAGACUGCCUCUCUGGAUUCCUCGUCACUCAGCAGGGCAUCUCUGAGAGAAAUGCC [A2G U13C U62C], the self-cleavage turned out to be 0. On to UGCGUAGGUGGUUCUCCCCUGAUAGUGCUAAGGGGGCCUGGAAGUUUGGACUGGGCAGAGCUCAACACAGCGUGGCAAAGUGGCUGUGGCUAGACUGCCUCUCUGGGUUCCUCGUCACUCAGCAGGGCAUCUCUGGGAGAAAUGCC [A2G U14C A107G A136G], for which the self-cleavage amounted to 1.41.

Consider UGCGUAGGUGGUUCUCCCCUGAUAGUGCUAAGGGGGCCUGGAAGUUUGGAUUGGGCAGAGCUCAACACAGCGUGGCAAAGUGGCUGUGGCUAGACUGCCUCUCUGGAUUCCCCGUCACUCAGCAGGGCAUCUCUGAGAGAAAUGCC [A2G U14C C51U U112C], for which the self-cleavage came to 0.24.

Source of the values: the RNAGym collection of RNA variant scans (doi:10.7554/elife.90254).
